This is one part of the list.
Assays:
Assay in all cases: glycan array binding signal (z-score within array); higher = stronger binding
Conditions in all cases: glycan notation: IUPAC condensed, linker removed
[1] = target: Gal(a1-3)Gal
How it was run: (§1)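 The binding signal is a Z-score computed within each array. Data were drawn from 3228 arrays in the Consortium for Functional Glycomics database, restricted to those with a known protein sequence. Scores were averaged over arrays of the same protein sequence at different concentrations or buffers, and over linkers, and negative values can be taken as non-binding.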

[2] = target: Gal(a1-3)Gal(b1-3)GlcNAc
How it was run: as §1

[3] = target: Gal(a1-3)Gal(b1-3)GlcNAc(b1-2)Man
How it was run: as §1

[4] = target: Gal(a1-3)Gal(b1-3)GlcNAc(b1-2)Man(a1-3)[Gal(a1-3)Gal(b1-3)GlcNAc(b1-2)Man(a1-6)]Man(b1-4)GlcNAc(b1-4)GlcNAc
How it was run: as §1

[5] = target: Gal(a1-3)Gal(b1-3)GlcNAc(b1-3)GalNAc
How it was run: as §1

[6] = target: Gal(a1-3)Gal(b1-3)GlcNAc(b1-6)GalNAc
How it was run: as §1

[7] = target: Gal(a1-3)Gal(b1-3)[Fuc(a1-4)]GlcNAc(b1-2)Man(a1-3)[Gal(a1-3)Gal(b1-3)[Fuc(a1-4)]GlcNAc(b1-2)Man(a1-6)]Man(b1-4)GlcNAc(b1-4)GlcNAc
How it was run: as §1

[8] = target: Gal(a1-3)Gal(b1-4)Glc
How it was run: as §1

[9] = target: Gal(a1-3)Gal(b1-4)GlcNAc
How it was run: as §1

[10] = target: Gal(a1-3)Gal(b1-4)GlcNAc(b1-2)Man
How it was run: as §1

[11] = target: Gal(a1-3)Gal(b1-4)GlcNAc(b1-2)Man(a1-3)[Gal(a1-3)Gal(b1-4)GlcNAc(b1-2)Man(a1-6)]Man(b1-4)GlcNAc(b1-4)GlcNAc
How it was run: as §1

[12] = target: Gal(a1-3)Gal(b1-4)GlcNAc(b1-3)GalNAc
How it was run: as §1

[13] = target: Gal(a1-3)Gal(b1-4)GlcNAc(b1-6)GalNAc
How it was run: as §1

[14] = target: Gal(a1-3)Gal(b1-4)[Fuc(a1-3)]GlcNAc
How it was run: as §1

[15] = target: Gal(a1-3)Gal(b1-4)[Fuc(a1-3)]GlcNAc(b1-2)Man(a1-3)[Gal(a1-3)Gal(b1-4)[Fuc(a1-3)]GlcNAc(b1-2)Man(a1-6)]Man(b1-4)GlcNAc(b1-4)GlcNAc
How it was run: as §1

[16] = target: Gal(a1-3)GalNAc
How it was run: as §1

[17] = target: Gal(a1-3)[Gal(a1-4)]Gal(b1-4)GlcNAc
How it was run: as §1

[18] = target: Gal(a1-4)Gal(b1-3)GlcNAc(b1-2)Man(a1-3)[Gal(a1-4)Gal(b1-3)GlcNAc(b1-2)Man(a1-6)]Man(b1-4)GlcNAc(b1-4)GlcNAc
How it was run: as §1

[19] = target: Gal(a1-4)Gal(b1-4)Glc
How it was run: as §1

[20] = target: Gal(a1-4)Gal(b1-4)GlcNAc
How it was run: as §1

[21] = target: Gal(a1-4)Gal(b1-4)GlcNAc(b1-2)Man(a1-3)[Gal(a1-4)Gal(b1-4)GlcNAc(b1-2)Man(a1-6)]Man(b1-4)GlcNAc(b1-4)GlcNAc
How it was run: as §1

[22] = target: Gal(a1-4)Gal(b1-4)GlcNAc(b1-3)Gal(b1-4)Glc
How it was run: as §1

[23] = target: Gal(a1-4)GlcNAc
How it was run: as §1

[24] = target: Gal(a1-6)Glc
How it was run: as §1

[25] = target: Gal(b1-2)Gal
How it was run: as §1

[26] = target: Gal(b1-3)Gal
How it was run: as §1

[27] = target: Gal(b1-3)Gal(b1-4)GlcNAc
How it was run: as §1

[28] = target: Gal(b1-3)GalNAc
How it was run: as §1

[29] = target: Gal(b1-3)GalNAc(a1-3)[Fuc(a1-2)]Gal(b1-4)Glc
How it was run: as §1

[30] = target: Gal(b1-3)GalNAc(a1-3)[Fuc(a1-2)]Gal(b1-4)GlcNAc
How it was run: as §1

[31] = target: Gal(b1-3)GalNAc(b1-3)Gal
How it was run: as §1

[32] = target: Gal(b1-3)GalNAc(b1-3)Gal(a1-4)Gal(b1-4)Glc
How it was run: as §1

[33] = target: Gal(b1-3)GalNAc(b1-4)Gal(b1-4)Glc
How it was run: as §1

[34] = target: Gal(b1-3)GalNAc(b1-4)[Neu5Ac(a2-3)]Gal(b1-4)Glc
How it was run: as §1

[35] = target: Gal(b1-3)GlcNAc
How it was run: as §1

[36] = target: Gal(b1-3)GlcNAc(a1-3)Gal(b1-4)GlcNAc
How it was run: as §1

[37] = target: Gal(b1-3)GlcNAc(a1-6)Gal(b1-4)GlcNAc
How it was run: as §1

[38] = target: Gal(b1-3)GlcNAc(b1-2)Man
How it was run: as §1

B1: CFEM-PPl (Pichia pastoris), F2QPV1 (protein)
chain: AVATPPACLLACAAEVVKESSDCDALNNIQCICENEGSAIHACLESTCPDGLSSTALQSFEDVCESVGTEANLDE
glycan array binding signal (z-score) [1]: -0.17 | glycan array binding signal (z-score) [2]: -0.036 | glycan array binding signal (z-score) [3]: -0.33 | glycan array binding signal (z-score) [4]: -0.051 | glycan array binding signal (z-score) [5]: -0.151 | glycan array binding signal (z-score) [6]: -0.144 | glycan array binding signal (z-score) [7]: -0.153 | glycan array binding signal (z-score) [8]: -0.269 | glycan array binding signal (z-score) [9]: -0.037 | glycan array binding signal (z-score) [10]: -0.166 | glycan array binding signal (z-score) [11]: 0.06 | glycan array binding signal (z-score) [12]: -0.354 | glycan array binding signal (z-score) [13]: -0.328 | glycan array binding signal (z-score) [14]: -0.163 | glycan array binding signal (z-score) [15]: -0.015 | glycan array binding signal (z-score) [16]: -0.249 | glycan array binding signal (z-score) [17]: -0.118 | glycan array binding signal (z-score) [18]: -0.23 | glycan array binding signal (z-score) [19]: -0.08 | glycan array binding signal (z-score) [20]: -0.166 | glycan array binding signal (z-score) [21]: -0.055 | glycan array binding signal (z-score) [22]: -0.251 | glycan array binding signal (z-score) [23]: 0.414 | glycan array binding signal (z-score) [24]: 0.268 | glycan array binding signal (z-score) [25]: -0.094 | glycan array binding signal (z-score) [26]: 8.35 | glycan array binding signal (z-score) [27]: 4.73 | glycan array binding signal (z-score) [28]: 4.58 | glycan array binding signal (z-score) [29]: 0.63 | glycan array binding signal (z-score) [30]: 1.2 | glycan array binding signal (z-score) [31]: 7.59 | glycan array binding signal (z-score) [32]: 0.7 | glycan array binding signal (z-score) [33]: 11.5 | glycan array binding signal (z-score) [34]: 1.48 | glycan array binding signal (z-score) [35]: -0.159 | glycan array binding signal (z-score) [36]: 0.567 | glycan array binding signal (z-score) [37]: 0 | glycan array binding signal (z-score) [38]: -0.094

Source: the supplement of paper PMC8728848
